Among all 48,000 compounds or so, about 120 (0.25%) were called active. Roughly 4% stayed inconclusive and do not appear here. Calls come from the whole dose curve; as a rule, active = well fitted activation curve with a large enough effect; inconclusive = small, poorly fitted or top-dose-only effect, or another doubt; inactive = no such curve, though single readings can be large or run the other way. The list shows a part of the results, in another mix than the full data. Entries without a call were filed so in the source.

This assay in a line: Primary qHTS for Identification of Small Molecule Activators of Huntingtin-Antisense Promoter Activity. Note: nearly all actives have a fitted effect of over 55% in size. To be noted: HEK293 HTT-AS promoter firefly luciferase reporter, 24 h; at 57.5 µM (top of the series) unless noted. The source says:
Assay Provider: Russell L. Margolis M.D.
Department Neurology, Johns Hopkins University School of Medicine, Baltimore, MD
Huntington's Disease (HD) is a neurodegenerative disorder caused by a CAG repeat expansion in exon 1 of huntingtin (HTT). While there are currently no disease-modifying treatments for HD, recent efforts have focused on development of nucleotide-based therapeutics to lower HTT expression. As an alternative to siRNA or oligonucleotide methods, we hypothesized that suppression of HTT expression might be accomplished by small molecules that either (1) directly decrease HTT expression by suppressing HTT promoter activity or (2) indirectly decrease HTT expression by increasing the promoter activity of HTT-AS, the gene antisense to HTT that appears to inhibit expression of HTT.
We developed and employed a high throughput screen for modifiers of HTT and HTT-AS promoter activity using luminescent reporter HEK293 cells; of the 52,041 compounds tested, we identified 898 replicable hits. We used a rigorous stepwise approach to assess compound toxicity and the capacity of the compounds to specifically lower huntingtin protein in 5 different cell lines, including HEK293 cells, HD lymphoblastoid cells, mouse primary neurons, HD iPSCs differentiated into cortical-like neurons, and HD hESCs. We found no compounds which were able to lower huntingtin without lowering cell viability in all assays, though the potential efficacy of a few compounds at non-toxic doses could not be excluded.
SEQUENCE No. (1, 2, 3, etc.); […] (e.g., Cells, Incubation, Reagent, etc.); VALUE and DESCRIPTION.
1; Reagent; 4 uL; 2,500 Hek293 luciferase reporter cells per wells
3; Compound; 23 nL; Control inhibitor / compound library
5; Reagent; 2.5 uL; Firefly Luc reagent; Dual-Glo Luciferase Reporter Assay System (Promega)
6; Time; 10 min; room temperature incubation
7; Detection; Luminescence; FLuc
NOTES (numbers refer to sequence above)
1; High-throughput screening, measuring luminescence from a Hek293 luciferase reporter, was performed in 1,536 well white-walled tissue-culture treated plates. 2,500 cells were plated in 4 µL of Opti-MEM per well using a Multidrop Combi Reagent Dispenser (ThermoFisher).
2; Assay plates were cultured for 24 hours.
3; Control inhibitor (PTC124; final concentration of 50 uM) and compound library (at final concentrations of 460 nM - 57.5 uM) were added to the assay plate using the Kalypsis Pintool Robotic System equipped with 1536 pinheads.
4; Cells were then incubated for 24 hours at 37 degrees C prior to luminescence measurements.
5; In all cases, luminescence was measured using the Dual-Glo Luciferase Reporter Assay System (Promega) following the manufacturer's instructions.
6; Room temperature incubation.
7; Luminescence signal was obtained using the PerkinElmer ViewLux plate reader. Results were normalized to vehicle control (0% activity) and zero RLU (-100% activity).
For the molecule `CCc1cc(OC)c(C[C@H](C)N)cc1OC`, the activity change, positive = activation was inactive: -23.1% [at 116 µM]. Under `C[C@]12CC[C@@H]3c4ccc(OC(=O)N(CCCl)CCCl)cc4CC[C@H]3[C@@H]1CC[C@@H]2O` stands inactive: -11.7%. For `COP(=S)(OC)SCN1C(=O)c2ccccc2C1=O` the value was inactive: -25.7%. Under `C=CC[C@]1(O)CC[C@H]2[C@@H]3CCC4=CC(=O)CCC4=C3C=C[C@@]21C` stands inactive: -19.9%.

`CCOC(=O)c1ccc(NC(=O)c2cccn(Cc3ccc(C)cc3)c2=O)cc1`: the activity change, positive = activation is inactive: -42.8%.

For `O=C(Nc1ccc2c(c1)OCCO2)c1cccn(Cc2cccc(F)c2)c1=O`, the activity change, positive = activation is inactive: 7% [at 57.5 µM, percent change from vehicle, -100% = no light]. Under `Cc1oc2cc3oc(=O)c(CCC(=O)N4CCCCC4)c(C)c3cc2c1C` stands 70.2%. For the molecule `CCCCCCCCCCCC[N+](C)(C)CCOc1ccccc1`, the activity change, positive = activation was inactive: -35.5%. On to `Cc1ccc([N+](=O)[O-])[c]2c1[O][Hg]2`, for which the activity change, positive = activation is inactive: -95.7%. For the molecule `Cc1ccc(-n2c(=O)[nH]c3ccc(Br)cc3c2=O)cc1`, the activity change, positive = activation is 9.51% [at 57.5 µM, percent change from vehicle, -100% = no light]. Under `CSCC[C@@H](NC(=O)[C@@H](Cc1ccccc1)NC(=O)CNC(=O)CNC(=O)[C@@H](N)Cc1ccc(O)cc1)C(=O)O` stands inactive: 2.45%.
